Here are results for 43 compounds from ChEMBL document CHEMBL4888484, “Replenishing the malaria drug discovery pipeline: Screening and hit evaluation of the MMV Hit Generation Library 1 (HGL1) against asexual blood stage Plasmodium falciparum ,using a nano luciferase reporter read-out” (2022).

The whole screen tested about 150,000 compounds, of which about 540 (0.36%) showed an effect of 50% or more. Some of the results follow.

The subject of this test is Plasmodium falciparum. In words: Primary screen in NF54 nanoGlo assay, in single point, at 2uM, 72h; a lower Z score goes with more inhibition. The class given is functional, Erythrocyte. The note with it: timepoint 72 hour.
The term % Inhibition denotes the change of the read-out against control, counted positive when it falls. Take `Cc1ccc(Cn2c(=O)c3nn(C)cc3n3c(=O)n(Cc4c(F)cccc4Cl)nc23)cc1`: the “% Inhibition” value came out at 3% and the Z score is -0.4.

As for `COc1ccc(C(=O)N[C@H]2CCOC3(CCOCC3)C2)c(C)c1`, the “% Inhibition” value came to 0% and the Z score is listed as 0.06.

With `CCNC(=O)N1CC(=O)N(Cc2ccccc2)C1`, the “% Inhibition” value is recorded as -3% and the Z score was 0.25.

As to `CC(=O)Nc1nc2ccc(NC(=O)c3cnn(C(C)(C)C)c3)cc2s1`, the “% Inhibition” value was determined as 5% and the Z score is recorded as -0.7.

In the case of `CNC(=O)C[C@H](C)N(C)c1nc2c(s1)c(C)nn2C`, the “% Inhibition” value was -9% and the Z score is given as 1.64.

Turning to `c1ccc(C[C@H]2COCC3(CCCC3)N2)cc1`, the “% Inhibition” value is on record as -13% and the Z score worked out at 1.8.

As for `CCOc1ccc(C(=O)N2CCN(c3ccncc3C)CC2)cc1OCC`, the “% Inhibition” value is -6% and the Z score was 1.09.

As for `OC(CN1CCCC(c2nncn2C2CC2)C1)c1ccccc1F` (stereo unspecified), the “% Inhibition” value was -18% and the Z score amounted to 2.04.

With `N#CC1(NC(=O)C2CC2c2ccc3c(c2)OCCO3)CCc2ccccc2C1` (stereo unspecified), the “% Inhibition” value is -8% and the Z score worked out at 1.03.

In the case of `O=C(NC1CCCC1)N1CC[C@H](Oc2ncc(F)cn2)C1`, the “% Inhibition” value was -9% and the Z score is on record as 1.43.

For the compound `COc1cccc(CN2CCC[C@@]3(CCN(C(=O)Cc4c(C)[nH][nH]c4=O)C3)C2)c1OC`, the “% Inhibition” value is -1% and the Z score is 0.15.

Regarding `COc1ccc(-c2nc3c(c(N4CCC[C@@H]4C)n2)CCOCC3)cc1`, the “% Inhibition” value was -10% and the Z score is listed as 0.99.

Take `O=C(Cc1ccsc1)N1CCN(C(=O)c2nnn3c2CO[C@H](c2ccccc2)C3)CC1`: the “% Inhibition” value is given as -16% and the Z score was found to be 1.42.

Consider `CN(C(=O)C1(C2CC2)CCC1)C1CC(O)C1` (stereo unspecified), for which the “% Inhibition” value is -3% and the Z score worked out at 0.26.

Take `O=C(OCC(=O)N(C1CCCC1)[C@H]1CCS(=O)(=O)C1)c1ccc2n[nH]c(=O)n2c1`: the “% Inhibition” value is given as -6% and the Z score came to 0.65.

As for `COc1cc2c(cc1Cl)CN(Cc1ncnn1CCF)CC2`, the “% Inhibition” value is -14% and the Z score stood at 2.56.

Consider `COC(=O)C1C(O)CCCN1Cc1ncc(C)o1` (stereo unspecified), for which the “% Inhibition” value stood at 1% and the Z score is -0.17.

As for `CCOCCN(C)Cc1n[nH]c(C)c1C(=O)OCC`, the “% Inhibition” value came out at 40% and the Z score was -5.74.

Take `CCOC(=O)c1nc(N(CC)c2ccccc2)c2ccccc2n1`: the “% Inhibition” value is recorded as -4% and the Z score was 0.71.

On to `Cn1nccc1CNC(=O)CN1C(=O)COc2ccc(Cl)cc21`, for which the “% Inhibition” value was -13% and the Z score stood at 1.46.

Regarding `Cc1cccc2nc(NCc3cn(C(C)C)c(=O)[nH]c3=O)sc12`, the “% Inhibition” value is on record as -9% and the Z score is given as 1.78.

For `CC(C)Nc1cc(-c2cccnc2)nc(N)n1`, the “% Inhibition” value is -20% and the Z score was found to be 3.18.

Consider `CC(=O)Nc1c(-c2ccccc2)c(C)nn1-c1ccc(C(=O)N2CCc3ccccc3C2)cc1`, for which the “% Inhibition” value is on record as 27% and the Z score is given as -3.12.

For `CCc1nc(CN2CCC[C@H]2C(F)(F)F)no1`, the “% Inhibition” value is -5% and the Z score was 0.9.

On to `CC(C)CCc1noc(CNC2(c3nccs3)CCCC2)n1`, for which the “% Inhibition” value worked out at 1% and the Z score was -0.13.

For the compound `Cc1nn(CCOc2ccccc2)c(=O)n1-c1ccccc1F`, the “% Inhibition” value is 1% and the Z score is listed as -0.16.

For `CNC(=O)c1noc(CN(C)CCn2ccnc2C)n1`, the “% Inhibition” value stood at 21% and the Z score is recorded as -3.92.

For the compound `Cc1cc(NCc2cc(C(C)C)on2)nc(N(C)C)n1`, the “% Inhibition” value is recorded as -2% and the Z score was 0.4.

`C[C@@H](Cn1cncn1)c1nc(Cc2cccs2)n[nH]1`: the “% Inhibition” value is listed as -5% and the Z score is listed as 0.93.

On to `Nc1nnc(-c2nnnn2-c2ccccc2)o1`, for which the “% Inhibition” value came to 4% and the Z score is -0.58.

As for `Cc1cc(OCCOCCN(C)C)ccc1Cl`, the “% Inhibition” value was 4% and the Z score is -0.58.

With `Cc1ccc2c(c1)nc(-c1cnc(N3CCCC3)nc1)n2C`, the “% Inhibition” value was -3% and the Z score amounted to 0.31.

As to `Nc1nc(C2CC2)nc(N2CCN(C(=O)C[C@H]3CCOC3)CC2)n1`, the “% Inhibition” value is -8% and the Z score turned out to be 1.46.

`O=C1NCCCC[C@@H]1Nc1nc2ccccc2o1`: the “% Inhibition” value is recorded as -7% and the Z score is on record as 1.1.

Consider `Cc1ccc(CCNCC2(S(=O)(=O)NC(C)(C)C)CC2)cn1`, for which the “% Inhibition” value was determined as 14% and the Z score is -1.65.

Regarding `O=S(=O)(NC1CC(NCC(F)(F)F)C1)c1cccc(F)c1` (stereo unspecified), the “% Inhibition” value is -11% and the Z score turned out to be 1.43.

As to `CC[n+]1c(/C=C/N(C)c2ccccc2)oc2ccccc21`, the “% Inhibition” value was found to be 80% and the Z score is -10.29.

With `CCN(CC)S(=O)(=O)N1CCc2nc[nH]c2C12CCC2`, the “% Inhibition” value was -8% and the Z score stood at 1.43.

In the case of `Cc1cnc(CCNC(=O)NC(C)C(C)CO)s1` (stereo unspecified), the “% Inhibition” value is reported as -17% and the Z score was 2.22.

As for `CC[C@H](C)N(Cc1ccc(OS(=O)(=O)c2cccc(C(F)(F)F)c2)cc1)C(=O)Nc1cccc(OC)c1`, the “% Inhibition” value is listed as -14% and the Z score is 1.55.

`Cn1cc(S(=O)(=O)NC(=O)CCc2ccsc2)c2ccccc21`: the “% Inhibition” value is given as -10% and the Z score is recorded as 1.44.

On to `COc1ccc(-c2nnc(-c3cccnc3NCCN3CCCCCC3)o2)cc1`, for which the “% Inhibition” value is reported as -7% and the Z score is given as 1.27.

For `CC1=C[C@@H](CNC(C)C)[C@H](C(C)C)C[C@H]1Cc1nnc(-c2ccncc2)o1`, the “% Inhibition” value worked out at 18% and the Z score is -2.13.
